Experimental data as given in the supplement of paper PMC10369915.
This is one part of the list. Rule as the data show it: active = 3.2 or more and inactive = the rest. Only a few entries rise above the background.

What was measured:
Assay in all cases: enrichment score (SH2-bound / input frequency) (ratio); bacterial display of known human phosphotyrosine sites (pTyr-Var adds point mutants) read by sequencing; higher = stronger binding; tyrosines were phosphorylated by kinases first
Details in all cases: peptide library: pTyr-Var
SHP2 C-SH2 domain E139D = molecular target: SHP2 C-SH2 domain E139D
[1] = molecular target: SHP2 C-SH2 domain wild-type
SHP2 N-SH2 domain L43F = molecular target: SHP2 N-SH2 domain L43F
SHP2 N-SH2 domain T42A = molecular target: SHP2 N-SH2 domain T42A
SHP2 N-SH2 domain T52S = molecular target: SHP2 N-SH2 domain T52S
[2] = molecular target: SHP2 N-SH2 domain wild-type
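Also: displayed peptides selected on beads carrying the immobilized SH2 domain, with library peptides lacking any tyrosine serving as negative controls.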

Binder	enrichment score (SHP2 C-SH2 domain E139D)	enrichment score [1]	enrichment score (SHP2 N-SH2 domain L43F)	enrichment score (SHP2 N-SH2 domain T42A)	enrichment score (SHP2 N-SH2 domain T52S)	enrichment score [2]
KSIEEYLKLVG [RASAL2_Y381]	inactive: 0.742	inactive: 0.778	inactive: 1.14	inactive: 1.03	inactive: 0.96	inactive: 0.805
TEDELYQLSLQ [RASGRP2_Y378]	inactive: 0.564	inactive: 0.654	inactive: 0.811	inactive: 0.417	inactive: 0.691	inactive: 0.684
MDYRSYPREYG [RBM10_Y44]	inactive: 0.814	inactive: 0.682	inactive: 0.685	inactive: 0.606	inactive: 0.611	inactive: 0.889
SYPHEYGSQEG [RBM10_Y48_R46H]	inactive: 0.716	inactive: 0.582	inactive: 0.511	inactive: 0.621	inactive: 0.543	inactive: 0.596
ADRARYSAFGG [RBM4_Y361]	inactive: 0.637	inactive: 0.566	inactive: 0.601	inactive: 0.44	inactive: 0.565	inactive: 0.699
IFGASYVPFAA [RBM47_Y541_YF]	inactive: 1.13	inactive: 0.902	inactive: 1.2	inactive: 1.31	inactive: 1.18	inactive: 0.981
RVQKRYILDNV [RCN1_Y115_F117L]	inactive: 0.646	inactive: 0.429	inactive: 0.526	inactive: 0.509	inactive: 0.686	inactive: 0.369
HDRGNYVRLNM [RECQL4_Y353]	inactive: 1.22	inactive: 1.65	inactive: 1.59	active: 4.14	inactive: 1.61	inactive: 1.34
IENKPYGMSDP [RET_Y1062_L1061P]	inactive: 0.585	inactive: 0.577	inactive: 0.668	inactive: 0.686	inactive: 0.518	inactive: 0.681
AFPVSYSSPGA [RET_Y687_S690P]	inactive: 0.741	inactive: 0.779	inactive: 0.683	inactive: 0.605	inactive: 0.861	inactive: 0.804
LLILEYAKYGS [RET_Y806_V804L]	inactive: 2.92	inactive: 2.72	inactive: 2.61	inactive: 2.15	inactive: 2.61	inactive: 2.38
LLIMEYAKYGS [RET_Y806_V804M]	inactive: 2.7	inactive: 3.04	inactive: 2.89	inactive: 2.82	inactive: 2.82	inactive: 2.42
LLIMEYAKFGS [RET_Y806_V804M_YF]	active: 3.44	active: 3.24	active: 3.87	inactive: 2.77	active: 4.58	active: 4.54
VEYAKYGSLRG [RET_Y809]	inactive: 0.568	inactive: 1.28	inactive: 0.581	inactive: 0.475	inactive: 0.543	inactive: 0.62
KVGPGYLGSRG [RET_Y826_G830R]	inactive: 0.908	inactive: 0.667	inactive: 0.809	inactive: 0.828	inactive: 0.963	inactive: 0.753
VFDHIYTTQSD [RET_Y928_L923V]	inactive: 1.08	inactive: 0.999	inactive: 1.07	inactive: 0.874	inactive: 0.974	inactive: 1.1
CSEETYRLMLQ [RET_Y981_M980T]	inactive: 0.836	inactive: 0.793	inactive: 1.13	inactive: 0.777	inactive: 0.734	inactive: 0.858
SSTASYFEAPG [RFX2_Y108]	inactive: 0.789	inactive: 0.717	inactive: 0.673	inactive: 0.852	inactive: 0.619	inactive: 0.588
LAIERYVVVCK [RHO_Y136]	inactive: 0.763	inactive: 1.24	inactive: 0.73	inactive: 0.879	inactive: 0.803	inactive: 1.06

Binder	enrichment score (SHP2 C-SH2 domain E139D)	enrichment score [1]	enrichment score (SHP2 N-SH2 domain L43F)	enrichment score (SHP2 N-SH2 domain T42A)	enrichment score (SHP2 N-SH2 domain T52S)	enrichment score [2]
LAIELYVVVCK [RHO_Y136_R135L]	inactive: 1.4	inactive: 0.683	inactive: 0.741	inactive: 0.785	inactive: 0.674	inactive: 1.43
PRRRFYVVACD [RNASE3_Y134_G130R]	inactive: 0.194	inactive: 0.183	inactive: 0.209	inactive: 0.268	inactive: 0.259	inactive: 0.26
DLDTDYGSGYP [RNASEH2A_Y206]	inactive: 0.472	inactive: 0.518	inactive: 0.621	inactive: 0.356	inactive: 0.544	inactive: 0.448
DLDTEYGSGFP [RNASEH2A_Y206_D205E_YF]	inactive: 0.679	inactive: 0.491	inactive: 0.639	inactive: 0.588	inactive: 0.626	inactive: 0.519
DSDTDYGSGFP [RNASEH2A_Y206_L202S_YF]	inactive: 0.44	inactive: 0.442	inactive: 0.573	inactive: 0.611	inactive: 0.381	inactive: 0.481
EFGSGYPNDPK [RNASEH2A_Y210_D205E_YF]	inactive: 0.639	inactive: 0.676	inactive: 0.469	inactive: 0.483	inactive: 0.475	inactive: 0.792
FGVVGYLAIMF [RNF175_Y155]	inactive: 2.14	inactive: 2.12	inactive: 2.14	inactive: 3	inactive: 1.8	inactive: 2.44
EQSNPYMVLDI [ROCK2_Y1197]	inactive: 0.758	inactive: 0.865	inactive: 0.735	inactive: 1.29	inactive: 0.72	inactive: 0.924
VYAANYYKLLG [ROR2_Y645_D644N]	inactive: 0.793	inactive: 0.746	inactive: 0.669	inactive: 0.727	inactive: 0.68	inactive: 0.602
VPVNGYQPVPA [ROR2_Y824]	inactive: 0.516	inactive: 0.636	inactive: 0.639	inactive: 0.475	inactive: 0.609	inactive: 0.881
FLNSIYKSRDE [ROS1_Y2227]	inactive: 1.4	inactive: 1.39	inactive: 1.43	inactive: 0.967	inactive: 1.65	inactive: 1.27
PVVKLYATDGR [RP1_Y199]	inactive: 0.902	inactive: 1.06	inactive: 0.79	inactive: 0.766	inactive: 0.89	inactive: 0.982
LEDPMYDIIRD [RP9_Y142_H137L]	inactive: 0.596	inactive: 0.705	inactive: 0.705	inactive: 0.619	inactive: 0.851	inactive: 0.658
PEVRRYVLPLN [RPE65_Y368]	inactive: 1.1	inactive: 1.35	inactive: 1.36	inactive: 1.08	inactive: 1.09	inactive: 1.46
TEVRRYVLPLN [RPE65_Y368_P363T]	inactive: 0.86	inactive: 0.987	inactive: 0.776	inactive: 0.693	inactive: 0.645	inactive: 0.919
PEVRRCVLPLN [RPE65_Y368_Y368C]	inactive: 1.01	inactive: 1.35	inactive: 1.05	inactive: 0.931	inactive: 0.979	inactive: 1.2
SPYAVYRFFTF [RPGRIP1_Y826]	inactive: 0.469	inactive: 0.794	inactive: 0.626	inactive: 0.483	inactive: 0.523	inactive: 0.738
SPFAVYRFFTF [RPGRIP1_Y826_YF]	inactive: 0.592	inactive: 0.499	inactive: 0.54	inactive: 0.512	inactive: 0.546	inactive: 0.489
